The values below come from patent US20200338209A1, “ANTI-B7-H3 ANTIBODIES AND ANTIBODY DRUG CONJUGATES” (AbbVie Inc., priority 2016, published 2020).

Series [1] can be described thus: Percentage aggregation of ADCs by size exclusion chromatography (SEC). It counts as physicochemical. Particulars: huAb13 variants conjugated to payload CZ, Method A. The protocol: The DAR and percentage aggregation of ADCs synthesized were determined by LC-MS and size exclusion chromatography (SEC), respectively.
Size exclusion chromatography was performed using a Shodex KW802.5 column in 0.2 M potassium phosphate pH 6.2 with 0.25 mM potassium chloride and 15% IPA at a flow rate of 0.75 ml/min. The peak area absorbance at 280 nm was determined for each of the high molecular weight and monomeric eluents by integration of the area under the curve. The % aggregate fraction of the conjugate sample was determined by dividing the peak area absorbance at 280 nm for the high molecular weight eluent by the sum of the peak area absorbances at […] of the high molecular weight and monomeric eluents multiplied by 100%.
A general note: In gel filtration, larger molecules generally elute earlier.

In series [2] the test system is NCI-H847 (small cell lung cancer cell line). Put plainly: In vitro cell viability assay (CellTiter-Glo, 5 days), NCI-H847. It counts as cell-based, human. As to conditions: CZ conjugates of huAb13 variants; H847 cells; read-out: Cytotoxicity H847 Cell line IC50. The method, then: The tumor cell lines HCC38 (breast cancer), NCI-H1650 (NSCL), and NCI-H847 (small cell lung cancer cell line) were obtained from American Type Culture Collection (ATCC). Cells were grown in 96-well culture plates using recommended growth media overnight at a density of 5×10^3 (HCC38) or 20×10^3 (NCI-H847) or 40×10^3 (NCI-H1650) per well. The following day, treatments were added in fresh media to triplicate wells. Cellular viability was determined 5 days later using the CellTiter-Glo Luminescent Cell Viability Assay kit (Promega), as directed in the manufacturer's protocol. Cell viability was assessed as percentage of control untreated cells.
On the technique in general: ATP-based viability assays read luminescence as a measure of living cells.

B1: huAb13v1-CZ (conjugate)
heavy: EVQLQESGPGLVKPSETLSLTCAVTGYSITSGYSWHWIRQFPGNGLEWMGYIHSSGSTNYNPSLKSRISISRDTSKNQFFLKLSSVTAADTAVYYCAGYDDYFEYWGQGTTVTVSSASTKGPSVFPLAPSSKSTSGGTAALGCLVKDYFPEPVTVSWNSGALTSGVHTFPAVLQSSGLYSLSSVVTVPSSSLGTQTYICNVNHKPSNTKVDKKV[omitted - human IgG1 Fc with changes]
light: DIQMTQSPSSLSASVGDRVTITCKASQNVGFNVAWYQQKPGKSPKALIYSASYRYSGVPSRFSGSGSGTDFTLTISSLQPEDFAEYFCQQYNWYPFTFGQGTKLEIKRTVAAPSVFIFPPSDEQLKSGTASVVCLLNNFYPREAKVQWKVDNALQSGNSQESVTEQDSKDSTYSLSSTLTLSKADYEKHKVYACEVTHQGLSSPVTKSFNRGEC
The IC50 is the point on the concentration scale where inhibition reaches its midpoint. On to B1, for which the “% agg by SEC” value in series [1] worked out at 5.1%. The half-maximal inhibitory concentration (IC50) in series [2] came to 0.09 nM.
